Source: PubChem BioAssay AID463173 (ICCB-Longwood Screening Facility, Harvard Medical School, 2010)
In all, about 52,000 compounds went through this assay and about 4,300 (8.3%) were called active. No stated cut-off is given here; in the data, active means survival mostly below about 52% (no sharp cut-off); inactive means mostly above about 56%. The list shows a part of the results.

tested on: DeltatarO mutant; experiment: growth inhibition of S. aureus wild type versus tarO mutant, primary screen, teichoic acid synthesis inhibitors, RN4220, OD600 (AID 463173); conditions: OD600, 18 h, stronger effect = lower value, screened at 18.75 µg/mL (by protocol)

How did the survival turn out when CCSc1ncc(Cl)c(C(=O)N(Cc2ccc(N(C)C)cc2)Cc2ccco2)n1 was run?
The survival was inactive: 104%.

How did the survival turn out when COc1ccc(S(=O)(=O)N2CCN(c3ccc(Cl)c(Cl)c3)CC2)c2ccccc12 was run?
The survival was inactive: 164%.

COCCNC(=O)c1ccc2c(c1)N(Cc1cc(C)ccc1C)C(=O)c1ccccc1S2(=O)=O was tested. Which survival did it give?
The survival was inactive: 68%.

Which survival does the source give for Cc1cccc(NC(=O)c2cc(-c3ccc4c(c3)OCCO4)on2)c1 here?
The survival was inactive: 69%.

Cc1ccc(NC(=O)CSc2nc3ccccc3nc2Cc2ccccc2)c(C)c1 was tested. Which survival did it give?
Its survival is inactive: 124%.

Which survival does the source give for Cc1cc(NCc2ccccc2Cl)n2cnnc2n1 here?
The survival was inactive: 85%.

CCOc1ccc(Cn2c(-c3ccc(OCC)c(OC)c3)nc3ccccc32)cc1OC was tested. Which survival did it give?
The survival was inactive: 79%.

How did the survival turn out when Cc1cccc(-c2nnn3c2nc(NCCc2ccc(S(N)(=O)=O)cc2)c2ccccc23)c1 was run?
Its survival is inactive: 101%.

Cc1cc(NC(=O)CSc2nnc(-c3cccs3)n2C)no1 was tested. Which survival did it give?
The survival was inactive: 83%.

CCCN(CCC)CCNC(=O)Cn1cc2c(n1)-c1c(oc(C(=O)N3CCCC3)c1C)CC2 was tested. Which survival did it give?
Its survival is inactive: 111%.

CC(=O)N(CCc1ccccc1)Cc1nc2ccccc2c(=O)[nH]1 was tested. Which survival did it give?
Its survival is inactive: 89%.

N=c1nc(SCCC(=O)O)ss1 was tested. Which survival did it give?
Its survival is inactive: 79%.

For O=C(CS(=O)(=O)c1cccc2nsnc12)Nc1ccc(F)cc1, which survival is on record?
The survival was inactive: 97%.

For Cc1nc(NC2CCN(Cc3nnnn3Cc3ccc4c(c3)OCO4)CC2)[nH]c(=O)c1C, which survival is on record?
Its survival is inactive: 94%.

For Cc1ccc(NCC(=O)N/N=C/c2ccncc2)cc1, which survival is on record?
Its survival is inactive: 108%.

For COC(=O)c1ccc2c(c1)N(Cc1cc(C)ccc1C)C(=O)c1ccccc1S2, which survival is on record?
The survival was inactive: 67%.

For CCN1CCc2nc3sc(C(=O)c4ccccc4)c(N)c3cc2C1, which survival is on record?
Its survival is inactive: 47%.

With CCN(c1ccccc1)S(=O)(=O)c1nnc(NC(=O)C(C)(C)C)s1 as the compound, how does the survival read?
The survival was inactive: 49%.

For CC(CNC(=O)c1ccc(CSc2nc3ccncc3n2Cc2ccc(F)cc2)cc1)c1ccccc1 (centres undefined), which survival is on record?
Its survival is inactive: 77%.

With Cc1ccc(-c2nc(-c3cc4cccc(OCc5ccc(F)cc5)c4oc3=O)no2)cc1 as the compound, how does the survival read?
The survival was inactive: 69%.

For Cc1ccc(CNC(=O)C2CCCCN2S(=O)(=O)c2ccc(F)cc2)cc1 (centres undefined), which survival is on record?
The survival was inactive: 84%.

For Cc1ccc(NC(=O)CSc2nc(-c3ccc(C(C)(C)C)cc3)nc3cc(=O)[nH]n23)cc1C, which survival is on record?
Its survival is inactive: 84%.

CSc1ncc(C(=O)Nc2cccc(C)c2C)c(-c2ccccc2)n1 was tested. Which survival did it give?
Its survival is inactive: 83%.

For COc1ccc(CNC(=O)C2CCN(S(=O)(=O)c3ccc(F)cc3)CC2)cc1, which survival is on record?
The survival was inactive: 71%.

With CC(CO)(CO)N=Cc1c(O)[nH]c(=O)[nH]c1=O as the compound, how does the survival read?
The survival was inactive: 97%.

Which survival does the source give for COc1ccc(OCCn2c(C(C)Oc3ccccc3)nc3ccccc32)cc1 (centres undefined) here?
Its survival is active: 48%.

How did the survival turn out when CC1C(=O)Nc2ccc(S(=O)(=O)NCc3ccc(N(C)C)cc3)cc2NC1=O (centres undefined) was run?
Its survival is inactive: 74%.

How did the survival turn out when Cc1ccc(Cl)cc1-n1ncc2c(NCc3ccc(F)cc3)ncnc21 was run?
Its survival is inactive: 77%.

For C=CCn1c(SCC(=O)c2cccs2)nc2sc(C)cc2c1=O, which survival is on record?
Its survival is inactive: 93%.

With COc1ccc(Cn2c(CCC(=O)Nc3ccc(C)c(C)c3)nc3cccnc32)cc1 as the compound, how does the survival read?
The survival was inactive: 67%.

Which survival does the source give for CCCN(CCC)C(=O)CN1C(=O)CSc2ccc(S(=O)(=O)N3CCC(C)CC3)cc21 here?
Its survival is inactive: 78%.

With CC(=O)N1CCc2cc(S(=O)(=O)NC(CC(C)C)C(=O)NCCc3ccc(C)cc3)ccc21 (centres undefined) as the compound, how does the survival read?
Its survival is inactive: 80%.

COc1cccc(C(=O)c2cn(CC(=O)Nc3cccc(C(F)(F)F)c3)c3nc(C)ccc3c2=O)c1 was tested. Which survival did it give?
Its survival is inactive: 69%.

CCN(CC)S(=O)(=O)c1ccc2c(c1)nc(CN(C)C(=O)Nc1cccc(Cl)c1)n2C was tested. Which survival did it give?
The survival was inactive: 87%.

With CN(Cc1ccccc1)C(=O)c1cc2nc(-c3ccco3)cc(C(F)(F)F)n2n1 as the compound, how does the survival read?
The survival was inactive: 101%.

For Cc1cc(NC(=O)CC(C)C)no1, which survival is on record?
The survival was inactive: 69%.

For Cc1nc2nc(NCc3cccc(Cl)c3)[nH]n2c(=O)c1Cc1ccccc1, which survival is on record?
The survival was inactive: 78%.

Which survival does the source give for CCOc1ccc2nc(N3CCCC(C(=O)NCCCOC)C3)sc2c1 (centres undefined) here?
Its survival is inactive: 79%.

For COC(=O)c1ccc(Cn2c(SCc3ccccc3F)nc3ccncc32)cc1, which survival is on record?
The survival was active: 42%.

With CCOc1ccc(CCNC(=O)Cn2c(=O)c3cccn3c3ccc(F)cc32)cc1OCC as the compound, how does the survival read?
Its survival is inactive: 74%.

For CCOc1cc(CNc2ccc(C(=O)O)cc2)ccc1OCc1ccccc1, which survival is on record?
Its survival is active: 47%.

For Cc1ccc(C)[n+](C)c1, which survival is on record?
The survival was inactive: 108%.

How did the survival turn out when O=C(O)c1c(-c2ccccc2)oc2ccc(OCc3ccc(Cl)c(Cl)c3)cc12 was run?
Its survival is active: -1%.

How did the survival turn out when CN1C(=O)N(C)C2OC3OC4C(OC3OC21)N(C)C(=O)N4C (centres undefined) was run?
Its survival is inactive: 105%.

How did the survival turn out when COc1ccc(-c2cccc(NS(=O)(=O)c3ccc(C)s3)c2)nn1 was run?
The survival was inactive: 86%.

How did the survival turn out when COCCCNC(=O)c1oc2c(c1C)-c1nn(Cc3ccc(Cl)cc3)cc1CC2 was run?
Its survival is inactive: 75%.

How did the survival turn out when Cn1cc(CCC(=O)NCc2ccc(Cl)cc2)c2ccccc21 was run?
Its survival is inactive: 110%.

For CCc1ccccc1NC(=O)N1CCC(CN2CCc3ccccc3C2)CC1, which survival is on record?
The survival was inactive: 76%.

Cc1ccc(C(=O)CCC(=O)Nc2ccc(C)cc2C)cc1 was tested. Which survival did it give?
The survival was inactive: 115%.

Which survival does the source give for CC1CCN(S(=O)(=O)c2ccc3c(ccc(=O)n3CC(=O)Nc3ccc(C(C)C)cc3)c2)CC1 here?
Its survival is active: 0%.

For Nc1nc(SCC(=O)Nc2cccc(C(F)(F)F)c2)n[nH]1, which survival is on record?
Its survival is inactive: 63%.

With CCOC(=O)c1c(-c2ccc(C)cc2)csc1NC(=O)c1cc(-c2ccc(Cl)cc2)on1 as the compound, how does the survival read?
The survival was inactive: 90%.

COc1cccc(-n2c(=O)c3c(C)c(C)sc3n(CC(=O)Nc3ccccc3OC)c2=O)c1 was tested. Which survival did it give?
Its survival is inactive: 83%.

How did the survival turn out when CCc1ccc(CNCc2c(C(=O)O)c(C)n(Cc3c(F)cccc3Cl)c2C)cc1 was run?
The survival was inactive: 82%.

With Cc1ccccc1CC1C(=O)Nc2ccc(Br)cc21 (centres undefined) as the compound, how does the survival read?
Its survival is inactive: 80%.

With CCOc1cccc(C(=O)N(Cc2ccc(N(C)C)cc2)CC2CCCO2)c1 (centres undefined) as the compound, how does the survival read?
Its survival is inactive: 65%.

Which survival does the source give for CCCCC(CC)CNC(=O)CN(C)S(=O)(=O)c1ccc2c(c1)c(=O)n(C)c(=O)n2C (centres undefined) here?
The survival was inactive: 73%.

How did the survival turn out when COc1ccc(NC(=O)CSC2=Nc3ccccc3C3=NC(CCC(=O)NCc4ccc(F)cc4)C(=O)N23)cc1Cl (centres undefined) was run?
The survival was inactive: 76%.

CCOC(=O)c1ccc(NC(=O)CC2Sc3ccc(C(F)(F)F)cc3NC2=O)cc1 (centres undefined) was tested. Which survival did it give?
The survival was inactive: 78%.
